# Whole data set: some 110,000 compounds, median “z-score” near -0.1, cut for the highest 2% near 2. The list shows a part of the results.
# Molecular target: Metabotropic glutamate receptor 8 (Rattus norvegicus) (UniProt P70579)
# Assay: mGluR8 Gi/Go-coupled signaling modulation – cell-based, rat, thallium flux, HTS, primary screen (AID 488969)
# Conditions: HEK293 rat mGluR8, GIRK (G protein-gated inwardly rectifying potassium channel) thallium flux, FluoZin2; at 10 µM; stronger effect = higher value; submaximal glutamate (EC20) added with thallium
# UniProt P70579, sequence (P70579 whole entry, looked up): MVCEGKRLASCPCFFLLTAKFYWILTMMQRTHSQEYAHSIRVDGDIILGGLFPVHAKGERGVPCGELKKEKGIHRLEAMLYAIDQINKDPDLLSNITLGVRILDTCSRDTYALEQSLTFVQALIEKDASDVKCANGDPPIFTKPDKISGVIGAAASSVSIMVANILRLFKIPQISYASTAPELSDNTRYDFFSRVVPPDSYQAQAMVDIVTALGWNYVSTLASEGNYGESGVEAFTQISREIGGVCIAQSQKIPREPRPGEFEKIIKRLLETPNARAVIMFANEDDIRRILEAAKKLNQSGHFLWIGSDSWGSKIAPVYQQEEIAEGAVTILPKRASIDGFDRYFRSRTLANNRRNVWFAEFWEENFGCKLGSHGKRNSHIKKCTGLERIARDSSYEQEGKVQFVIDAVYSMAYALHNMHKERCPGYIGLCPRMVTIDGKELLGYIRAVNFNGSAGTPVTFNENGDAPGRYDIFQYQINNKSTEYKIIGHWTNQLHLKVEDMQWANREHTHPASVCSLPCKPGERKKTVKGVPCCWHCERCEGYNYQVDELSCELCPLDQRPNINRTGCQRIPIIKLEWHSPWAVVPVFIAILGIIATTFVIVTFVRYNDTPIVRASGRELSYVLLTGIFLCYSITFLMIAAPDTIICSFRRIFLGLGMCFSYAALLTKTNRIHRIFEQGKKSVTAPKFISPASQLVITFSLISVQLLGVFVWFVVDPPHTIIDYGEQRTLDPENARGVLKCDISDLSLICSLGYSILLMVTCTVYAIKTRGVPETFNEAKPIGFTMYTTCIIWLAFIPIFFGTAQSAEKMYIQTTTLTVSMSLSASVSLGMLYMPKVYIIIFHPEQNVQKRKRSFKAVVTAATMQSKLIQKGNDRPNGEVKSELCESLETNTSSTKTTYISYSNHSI
row,Structure (SMILES),z-score
1,CCc1cccc2c(C(=O)COC(=O)c3ccc([N+](=O)[O-])s3)c[nH]c12,0.398
2,COc1ccccc1N/C(=N/S(=O)(=O)c1ccc(C)cc1)c1ccc(Cl)cc1,-0.818
3,COCCn1c(=O)[nH]c2cc(C(=O)NCc3ccccc3)ccc2c1=O,0.41
4,COc1ccc(N2CCN(C(=O)CN3CCN(C(c4ccccc4)c4ccccc4)CC3)CC2)cc1,-0.0649
5,Cc1cccc(NC(=O)CSc2nnc([C@@H]3CCCN3C(=O)OC(C)(C)C)o2)c1C,1.54
6,Cc1cc(C)nc(N/N=C/c2ccccc2OCc2ccc(Cl)cc2)n1,0.0163
7,CCOC(=O)C1=C(COc2ccc(C)cc2)NC(=O)NC1c1cc(C)ccc1C (stereo unspecified),-0.0881
8,CCCCN(Cc1ccccc1)S(=O)(=O)c1ccc2[nH]c(=O)oc2c1,1.63
9,Cc1oc(-c2ccc(Cl)cc2)nc1CS(=O)CC(=O)NCc1cccs1 (stereo unspecified),-0.0359
10,Cc1cccc(NC(=O)c2ccccc2OCC(=O)c2ccccc2)c1,-0.226
11,COc1cc(NC(=O)c2ccco2)ccc1NC(=O)c1ccccc1Cl,0.0967
12,COc1ccc(N(Cc2cc(=O)[nH]c3ccccc23)C(=O)c2ccco2)cc1,0.0242
13,COc1ccc(CCNC(=O)c2ccccc2N(C)S(=O)(=O)c2ccccc2)cc1,1.7
14,Cc1cccc(-c2nnc3sc(-c4ccccc4)nn23)c1,0.567
15,COc1cc(C(=O)NCc2ccccc2)ccc1OC(F)F,-0.194
16,O=C1c2ccccc2C(=O)N1CCSc1ccccc1,-0.0757
17,CN1CCN(C(=O)c2cc3nc(-c4ccccc4)cc(C(F)(F)F)n3n2)CC1,-0.255
18,CCOc1cc(CNc2ccc(N3CCCCC3)cc2)cc(Br)c1OCC(=O)NC(C)(C)C,0.824
19,COc1cccc(/C=N/Nc2snc(SC)c2C#N)c1,0.107
20,COc1ccc(C(=O)Nc2nc(-c3ccc([N+](=O)[O-])cc3)c(-c3ccc(OC)cc3)s2)cc1,-0.225
21,O=C(NC1(C(F)(F)F)NC(=O)N(c2ccc(F)c(Cl)c2)C1=O)c1ccncc1 (stereo unspecified),-0.112
22,Clc1cccc(CSC2=NCCCN2)c1,1.31
23,c1ccc(-c2nnc(-c3ccco3)n2-c2ccccc2)cc1,0.694
24,Cc1ccc(SCC(=O)Nc2ccccc2C(=O)O)cc1,-0.545

row,Structure (SMILES),z-score
1,CCCNC(=O)c1noc2c1CCc1ccccc1-2,-1.67
2,O=C(Cc1c(F)cccc1Cl)NCC1CCCO1 (stereo unspecified),0.148
3,O=C(O)c1cc2c(s1)CCCC2,0.0889
4,Cc1ccc(-n2nc(N)c3c(=O)oc(N(C)C)nc32)cc1,-0.254
5,CC(Sc1nnnn1-c1ccccc1)C(=O)Nc1ccc(Cl)cn1 (stereo unspecified),-0.551
6,O=C(NC(Cc1ccccc1)C(=O)O)/C(=C\c1ccco1)NC(=O)c1ccc(Br)cc1 (stereo unspecified),-0.494
7,CC1CCCCC1NC(=O)Cn1[nH]c(=O)c2ccccc2c1=O (stereo unspecified),0.915
8,NC(=O)c1cc2ccccc2oc1=NCc1ccccc1,-0.00924
9,CC(C)CCNC(=O)CC1C(=O)N(Cc2ccccc2)C(C)c2nc3ccccc3n21 (stereo unspecified),0.168
10,CC1=C(C(=O)Nc2cccnc2)C(c2cccnc2)n2nc(-c3cccs3)nc2N1 (stereo unspecified),-0.574
11,Cc1cc(C(=O)OCC(=O)N2c3ccccc3NC(=O)C2(C)C)c(C)n1-c1ccccc1,0.0368
12,CCOC(=O)N1CCC(N(C(=O)Nc2cccc(OC)c2)C(C)CC)CC1 (stereo unspecified),-0.355
13,O=C(COc1ccccc1[N+](=O)[O-])N/N=C/c1ccccn1,-0.144
14,C=CCn1c(N)c(C(=O)N2CCOCC2)sc1=S,0.315
15,CNc1csc(C)c(C)c1=O,-0.0061
16,Cc1ccc(NC(=O)COC(=O)CNC(=O)c2ccc(Br)cc2)c(C)c1,-0.336
17,Cc1cc(NC(=S)NC(=O)c2ccccc2)ccc1-c1cc2ccccc2oc1=O,-0.165
18,COCCCNC(=S)Nc1ccc2c(c1)OCCO2,-0.0306
19,Cc1sc2ncnc(Sc3ccccc3C(=O)Nc3ccc(Br)cc3)c2c1C,-0.25
20,Cc1ccc(NS(=O)(=O)c2cc(C(=O)Nc3cccc([N+](=O)[O-])c3)ccc2C)cc1,-0.0552
21,Cc1cc(C)n(-c2ccc(C(=O)Nc3ccc(S(=O)(=O)NCc4ccco4)cc3)cc2)n1,-0.614
22,O=C(/C=C/c1ccccc1)/C=C/c1ccccc1,-0.389
23,S=C(Nc1cccc(Cl)c1)Nc1cccc2cnccc12,2.74
24,O=C(Oc1cccc2cccnc12)c1ccco1,-0.0367

row,Structure (SMILES),z-score
1,CCN(CC)S(=O)(=O)c1cc(C(=O)OCC(=O)Nc2cccc(Br)c2)ccc1F,-0.903
2,CN(C)CCCCCCCCCCC(=O)/C=N/O,0.216
3,COc1ccc(Cl)cc1NC(=O)COC(=O)CCCN1C(=O)c2ccccc2C1=O,-0.057
4,O=C(Oc1ccccc1)c1cccc2cccnc12,0.0897
5,COc1ccc(CC(=O)NCc2ccccn2)cc1OC,-0.156
6,CC(=O)Oc1ccc(C(=O)Nc2nnc(C)s2)cc1,-1.24
7,CC(NC(=O)c1ccco1)C(c1cccs1)N1CCN(c2ccc(F)cc2)CC1 (stereo unspecified),-1.05
8,O=C1c2ccc3c4c(ccc(c24)C(=O)N1NC(=O)C(F)(F)F)CC3,-0.584
9,CC(C)CNC(=O)c1ccccc1NC(=O)CSCc1ccccc1,-0.0809
10,O=C1OC(c2ccc3c(c2)OCO3)N(C(=O)c2ccc(Cl)c(Cl)c2)c2ccccc21 (stereo unspecified),-0.648
11,O=C(Cc1c(F)cccc1Cl)Nc1ccncc1,-0.151
12,CC(C)(CO)NC(=O)C(c1ccccc1)c1ccccc1,0.05
13,Cc1ccc(NC(=O)CCC(=O)NNS(=O)(=O)c2ccccc2)cc1C,0.494
14,Cc1ccc(-c2nnc(SCC(=O)Nc3ccccc3N3CCOCC3)o2)cc1,0.657
15,O=C(NCC1CCCO1)C1c2ccccc2C(=O)N1C1CCCCCCC1 (stereo unspecified),-0.14
16,CCOc1cc(C)c(Cl)cc1S(=O)(=O)n1cnc2ccccc21,-0.325
17,CCC(C)NC(=O)Cn1c(=O)n(CCCCCC(=O)Nc2ccccc2)c(=O)c2sccc21 (stereo unspecified),-0.253
18,COCC(C)NC(=O)NC1(C(F)(F)F)Oc2ccc(Cl)cc2O1 (stereo unspecified),0.0254
19,CCCCNC(=O)c1cc(-c2ccc(OC)c(OC)c2)on1,0.106
20,Cc1ccc(CN(C(=O)c2sc3ccccc3c2Cl)C2CCS(=O)(=O)C2)cc1 (stereo unspecified),0.2
21,CC1CCN(c2nc(-c3cccnc3)nc3scc(-c4ccccc4)c23)CC1,-0.234
22,Cc1cc(C)nc(/N=C2\NC(=O)CC3C(=O)NCCN23)n1 (stereo unspecified),-0.12
23,CC(C)c1nnc(NC(=O)CCN2C(=O)c3ccccc3C2=O)s1,0.268

# — PubChem BioAssay AID488969 (Vanderbilt High Throughput Screening Facility, 2010)
